{"source": "PubChem BioAssay AID485297", "about": "(National Center for Advancing Translational Sciences (NCATS), 2010)", "note": "The whole screen tested about 320,000 compounds, of which about 9,100 (2.8%) were called active. Inconclusive means that the source gave no clear call. Such entries were picked first, then a sample of the others. Calls follow the shape of the dose curve; as a rule, active = well fitted activation curve with a large enough effect; inconclusive = small, poorly fitted or top-dose-only effect; inactive = no such curve, though single readings can be large or run the other way. No potency is given beside an inconclusive call; the fits are too rough. Potency is read from the fitted curve at half-maximal effect; tags tell the direction and shape of the fitted curve."}
{"assay": "qHTS Assay for Rab9 Promoter Activators; also: nearly all actives have a fitted effect of over 60% in size; as to activation, negative = inhibition: % of control where 0% means no effect", "conditions": "Huh7 Rab9 promoter-luciferase reporter, luminescence, 24 h; series mostly up to 9.22 µM; activation, negative = inhibition: at the top concentration", "how_it_was_run": "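Cells were plated at 1500 per well in reduced-serum medium with 10% FBS and left 2 h. Compound in DMSO was then added for 24 h at 37 °C. Reporter signal was read by luminescence after 10 min with luciferase detection reagent.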"}
{"smiles": "COc1ccc2nc(/C=N/NC(=O)CCCCCNC(=O)OC(C)(C)C)ccc2c1", "Potency": "active: 3.98 µM"}
{"smiles": "Cc1cc(C)c2nc(N3CCCC(C(=O)NCCCN4CCOCC4)C3)sc2c1", "note": "(stereo not given)", "Potency": "inconclusive [activator, single point]"}
{"smiles": "Cc1ccccc1-c1nnc(-c2ccccc2)o1", "Potency": "active: 3.16 µM"}
{"smiles": "COc1nc(C)nc2c1sc1nc3c(cc12)COC(C)(C)C3", "Potency": "active: 2 µM"}
{"smiles": "c1cncc(-c2nnc(-c3cccs3)o2)c1", "Potency": "inconclusive [activator, partial curve]"}
{"smiles": "C(=N\\Nc1ncnc2ccccc12)/c1ccccc1", "Potency": "active: 2.82 µM"}
{"smiles": "O=C(N/C=C/c1ccco1)OCc1ccccc1", "Potency": "active: 3.55 µM"}
{"smiles": "COC(=O)CN(C)C(=O)c1ccc2nc(Cc3cccc(Cl)c3)oc2c1", "Potency": "active: 3.55 µM"}
{"smiles": "COc1ccc(Br)cc1-c1noc(-c2ccccc2)n1", "Potency": "inconclusive [activator, partial curve]"}
{"smiles": "CCCCCCC(=O)Nc1ccc(Br)cn1", "Potency": "inconclusive [activator, single point]"}
{"smiles": "Cc1ccc(NC(=O)NC2CCCCCCC2)cc1C", "Potency": "active: 3.55 µM"}
{"smiles": "O=C(N/N=C/c1ccc([N+](=O)[O-])o1)C1CCCC1", "Potency": "inconclusive [activator, single point]"}
{"smiles": "COCCn1c(C)cc(C(=O)CN2C(=O)NC3(CCCCCC3)C2=O)c1C", "Potency": "active: 2 µM"}
{"smiles": "COc1ccc2cc(C(=O)N3CCN(Cc4ccc5c(c4)OCO5)CC3)[nH]c2c1", "activation, negative = inhibition": "inactive: -5.66%"}
{"smiles": "c1ccc(-n2cnc3cc(NCc4ccccn4)ccc32)cc1", "Potency": "inconclusive [activator, partial curve]"}
{"smiles": "Nc1nc2ccccc2n1C(=O)c1ccccc1", "Potency": "active: 0.355 µM"}
{"smiles": "Cc1cccc(Nc2nc(N)nc(CSC(=S)N3CCOCC3)n2)c1", "Potency": "inconclusive [activator, single point]"}
{"smiles": "Oc1ccc(/C=N/NC(=S)Nc2cccnc2)cc1", "Potency": "inconclusive [activator, partial curve]"}
{"smiles": "O=C(NC(=S)Nc1nc2ccc(F)cc2s1)c1ccco1", "Potency": "active: 2.51 µM"}
{"smiles": "Cc1oc(/N=C/c2cccc3ccccc23)c(C#N)c1C", "activation, negative = inhibition": "inactive: 0.892%"}
{"smiles": "COc1cc(SC)ccc1C(=O)Nc1ccccc1C#N", "activation, negative = inhibition": "inactive: 3.1%"}
{"smiles": "CC1(C)Cc2c(sc(NC(=O)c3ccccc3)c2C(=O)O)CO1", "Potency": "inconclusive [activator, partial curve]"}
{"smiles": "C/C(=C\\C(=O)c1ccccc1)Nc1ccc(Br)c(Cl)c1", "Potency": "inconclusive [activator, partial curve]"}
{"smiles": "N#C/C(=C\\c1ccccn1)c1ccccn1", "Potency": "inconclusive [activator, single point]"}
{"smiles": "O=C(NC(=O)c1ccccc1O)c1ccc2c(c1)CCO2", "Potency": "inconclusive [activator, partial curve]"}
{"smiles": "O=C(/C=C/c1cccs1)NC(=S)Nc1ccc(C(=O)O)cc1", "Potency": "inconclusive [activator, partial curve]"}
{"smiles": "CC(=O)c1sc2nc(-c3ccco3)ccc2c1N", "Potency": "inconclusive [activator, single point]"}
{"smiles": "Clc1ccc(-c2ccc(CNCc3ccccn3)o2)cc1", "activation, negative = inhibition": "inactive: 24%"}
{"smiles": "O=[N+]([O-])c1ccc2nc(/C=C/c3ccc(Cl)cc3)[nH]c2c1", "Potency": "inconclusive [activator, partial curve]"}
{"smiles": "O=c1c(Cc2ccc(Cl)cc2)c(O)ccn1Cc1cccs1", "activation, negative = inhibition": "inactive: 0.0124%"}
{"smiles": "Cc1ccc(NC(=O)Nc2ccc3c(c2)OCO3)c(Br)c1", "Potency": "inconclusive [activator, partial curve]"}
{"smiles": "O=C(Nc1nc(-c2nc3ccccc3s2)cs1)c1ccc(S(=O)(=O)N2CCOCC2)cc1", "Potency": "active: 4.47 µM"}
{"smiles": "CSCCCNC(=S)N1CCc2ccccc2C1", "activation, negative = inhibition": "inactive: -3.11%"}
{"smiles": "O=C(COc1ccc(F)cc1)c1c(O)cc(O)cc1O", "Potency": "inconclusive [activator, partial curve]"}
{"smiles": "CC(=C/c1ccco1)/C=N/NC(=O)CSc1nnc(SCc2ccc(C)cc2)s1", "activation, negative = inhibition": "inactive: -4.2%"}
{"smiles": "O=C(NC(=S)Nc1cccc2cccnc12)c1ccccc1", "Potency": "inconclusive [activator, single point]"}
{"smiles": "O=C(/C=C/c1ccc(N2CCCCC2)c([N+](=O)[O-])c1)c1ccc(O)cc1", "Potency": "inconclusive [activator, single point]"}
{"smiles": "Cc1cc(C)c(NC(=O)Cn2nnc(C(=O)NCCc3ccccc3)c2N)c(C)c1", "Potency": "inconclusive [activator, single point]"}
{"smiles": "Cc1cc(C)c2c(N)c(C(=O)NCC3CCCCC3)sc2n1", "Potency": "inconclusive [activator, single point]"}
{"smiles": "CC(=O)C(=Nc1ccc(Cl)cc1Cl)NNc1cccc(Cl)c1", "activation, negative = inhibition": "inactive: -0.676%"}
{"smiles": "O=C(N/N=C/c1ccc2c(c1)OCO2)c1ccc2c(c1)OCCO2", "Potency": "inconclusive [activator, single point]"}
{"smiles": "O=[N+]([O-])c1ccc(N=NNc2ccccc2)cc1", "Potency": "inconclusive [activator, single point]"}
{"smiles": "COc1ccc(OC)c(S(=O)(=O)Nc2ccc(-c3ccc4nnc(C)n4n3)cc2)c1", "activation, negative = inhibition": "inactive: 0.993%"}
{"smiles": "CC(=O)N1c2ccc(S(=O)(=O)NCC3CCC(C(=O)N4CCCC(C)C4)CC3)cc2CC1C", "note": "(stereo not given)", "activation, negative = inhibition": "inactive: -9.4%"}
{"smiles": "S=c1nc[nH]c2c1cnn2-c1ccccc1", "Potency": "inconclusive [activator, partial curve]"}
{"smiles": "O=C1CN(c2nc(-c3cccs3)nc3sc4c(c23)CCCC4)CCN1", "activation, negative = inhibition": "inactive: -44.5%"}
{"smiles": "CC(C)Oc1ccc(C(=O)Nc2nc3ccccc3[nH]2)cc1", "Potency": "inconclusive [activator, full curve]"}
{"smiles": "CCC(C)NC(=O)Cc1c(C)c2cc3c(cc2oc1=O)OC(C)(C)CC3", "note": "(stereo not given)", "Potency": "active: 3.98 µM"}
{"smiles": "Cc1ccc(C2=N/C(=C\\c3ccc(F)cc3)C(=O)N2)cc1", "Potency": "inconclusive [activator, single point]"}
{"smiles": "CCc1ccc(N(CC(=O)Nc2ccc(OC)cc2OC)S(C)(=O)=O)cc1", "activation, negative = inhibition": "inactive: 7.95%"}
{"smiles": "CN(C)c1ccc(/C=C(\\NC(=O)c2ccccc2)C(=O)NCCCn2ccnc2)cc1", "activation, negative = inhibition": "inactive: 2.33%"}
{"smiles": "Cc1ccc(-c2csc(-c3c[nH]c4ccccc34)n2)cc1", "Potency": "active: 2.51 µM"}
{"smiles": "CCSc1nnc(NC(=O)c2cc3c(s2)CCCC3)s1", "Potency": "active: 1.58 µM"}
{"smiles": "COc1ccc(C2=C3C(=O)OCC3Cc3ncn(Cc4ccccc4)c32)cc1", "note": "(stereo not given)", "activation, negative = inhibition": "inactive: 0.409%"}
{"smiles": "Cc1cc(=O)[nH]c(SCC(=O)Nc2ccc(Cl)cn2)n1", "activation, negative = inhibition": "inactive: 1.94%"}
{"smiles": "COc1cccc(C(=O)Nc2cccc(SC)c2)c1", "Potency": "inconclusive [activator, partial curve]"}
{"smiles": "CCS(=O)(=O)N1Cc2ccccc2CC1C(=O)Nc1nc(C)cs1", "note": "(stereo not given)", "Potency": "inconclusive [activator, partial curve]"}
{"smiles": "CCOc1cccc(-c2csc(C3COc4ccccc4O3)n2)c1", "note": "(stereo not given)", "Potency": "active: 3.98 µM"}
{"smiles": "Clc1ccc(-c2csc(-c3ccncc3)n2)cc1", "Potency": "inconclusive [activator, partial curve]"}
{"smiles": "C=CCSC1=NNC(c2ccc(C(C)(C)C)cc2)=NN1", "Potency": "inconclusive [activator, single point]"}
{"smiles": "CCN(CC)c1ccc(NC(=O)C2CC3CCC2C3)cc1", "note": "(stereo not given)", "Potency": "inconclusive [activator, partial curve]"}
{"smiles": "Cc1cc(C(=O)N/N=C/c2ccccc2)c(C)o1", "Potency": "active: 3.16 µM"}
{"smiles": "CCOC(=O)c1c(C)[nH]c(C=Nc2ccccc2)c1O", "Potency": "inconclusive [activator, single point]"}
{"smiles": "CCc1ccc(OCC(=O)O/N=C(\\N)c2ccccn2)cc1", "Potency": "active: 3.16 µM"}
{"smiles": "COc1cc(NC(=O)c2cc(S(=O)(=O)N3CCCCC3)ccc2N2CCOCC2)cc(OC)c1", "activation, negative = inhibition": "inactive: -5.44%"}
{"smiles": "O=C(Nc1cccc(Cl)c1)Nc1nccs1", "Potency": "inconclusive [activator, single point]"}
{"smiles": "c1ccc(-c2onc3cc4c(cc23)OCCO4)cc1", "Potency": "active: 3.16 µM"}
{"smiles": "Cc1ccnc(N2C(=O)c3ccccc3C2O)c1", "note": "(stereo not given)", "Potency": "inconclusive [activator, full curve, poor fit]"}
{"smiles": "O=C(Nc1ccc(Cl)cc1)c1ccc2snnc2c1", "Potency": "inconclusive [activator, partial curve]"}
{"smiles": "O=C(c1cc(COc2cccc(C(F)(F)F)c2)on1)N1C[C@H]2CC[C@H]1C2", "Potency": "active: 2.24 µM"}
{"smiles": "CCc1ccc(NC(=O)c2[nH]c(C)c(C(C)=O)c2C)cc1", "Potency": "active: 1.58 µM"}
{"smiles": "O=C(NCCc1ccccc1)c1nccc2ccccc12", "Potency": "inconclusive [activator, single point]"}
{"smiles": "COc1ccc(C(=O)NCc2ccc(-c3nc4ccccc4s3)cc2)cc1OC", "Potency": "inconclusive [activator, single point]"}
{"smiles": "O=C(CCc1nnc(-c2ccsc2)o1)N1CCc2c(Cl)cccc2C1", "Potency": "inconclusive [activator, single point]"}
{"smiles": "COc1ccc(N2CCN(c3nccs3)CC2)cc1", "Potency": "inconclusive [activator, partial curve]"}
{"smiles": "Cc1[nH]c2ccccc2c1C(=O)C(=O)Nc1ccc2c(c1)OCO2", "Potency": "inconclusive [activator, partial curve]"}
{"smiles": "COc1ccc(NC(=O)C2=Cc3ccccc3OC2)cc1", "Potency": "active: 0.562 µM"}
{"smiles": "Cc1ccc(C)n1-c1ccc(C(=O)Nc2ccccc2)cc1", "Potency": "inconclusive [activator, single point]"}
{"smiles": "O=[N+]([O-])c1ccc2nc(-c3ccc(OC(F)F)cc3)cn2c1", "Potency": "active: 1 µM"}
{"smiles": "O=C(NC(=S)NCc1nc2ccccc2[nH]1)c1ccccc1F", "Potency": "inconclusive [activator, single point]"}
